# Measurements as given in the supplement of paper PMC3334620.
# The full ranking holds about 33,000 sequences; the median of “E-score (-0.5 to 0.5)” is about -0.011, and the highest 2% start at about 0.28. Some of the results follow.
# Biological target: T1, Gcr1 (UniProt P07261)
# T1 sequence: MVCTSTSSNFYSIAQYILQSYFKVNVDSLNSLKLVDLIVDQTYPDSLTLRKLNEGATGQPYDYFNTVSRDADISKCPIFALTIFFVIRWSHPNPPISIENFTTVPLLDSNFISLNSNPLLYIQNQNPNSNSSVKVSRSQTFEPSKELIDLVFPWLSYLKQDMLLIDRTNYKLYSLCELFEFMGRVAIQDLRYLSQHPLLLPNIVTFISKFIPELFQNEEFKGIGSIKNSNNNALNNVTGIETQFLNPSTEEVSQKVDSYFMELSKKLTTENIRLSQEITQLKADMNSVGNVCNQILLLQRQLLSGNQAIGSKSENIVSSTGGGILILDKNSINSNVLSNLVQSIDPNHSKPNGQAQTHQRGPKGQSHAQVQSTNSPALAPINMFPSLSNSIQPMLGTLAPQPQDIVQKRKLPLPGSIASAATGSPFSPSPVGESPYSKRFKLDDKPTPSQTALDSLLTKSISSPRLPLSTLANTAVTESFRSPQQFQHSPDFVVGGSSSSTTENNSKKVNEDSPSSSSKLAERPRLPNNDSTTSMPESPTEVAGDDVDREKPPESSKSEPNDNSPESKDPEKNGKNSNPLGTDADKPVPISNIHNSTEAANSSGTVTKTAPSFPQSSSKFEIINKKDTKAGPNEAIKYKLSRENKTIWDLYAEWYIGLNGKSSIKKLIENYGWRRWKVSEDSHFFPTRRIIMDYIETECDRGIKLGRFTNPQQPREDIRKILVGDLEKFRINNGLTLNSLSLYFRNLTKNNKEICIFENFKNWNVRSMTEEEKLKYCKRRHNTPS
# Assay: PBM E-score (8-mer binding enrichment) (E-score (-0.5 to 0.5)); higher = stronger / more preferred TF binding; most listed sequences are background and not binding sites
# Details: protein concentration: 100 nM; construct: GST-full length
# Summary of the method: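 For each ungapped eight-base word taken together with its reverse complement, the Universal PBM Analysis Suite assigned an E-score. Binding data came from GST-tagged yeast transcription factors, applied at about 100-200 nM, on universal all-10-mer Agilent arrays made double-stranded by primer extension. Fluorescent anti-GST marked bound protein, and scans were normalised with masliner.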
row,Sequence,PBM E-score
1,AGCCCCCT,-0.149
2,CCACGCCA,-0.0641
3,GCTGGTAC,-0.0354
4,ACGCGGAC,-0.0778
5,CTTGTAGC,0.195
6,AGCCCACT,0.165
7,ACCCGATA,-0.0855
8,CGGCGCGA,0.027
9,CGTGGTGA,-0.09
10,CCACACAA,0.191
11,ACTAGCAA,-0.00147
12,CATCCAGA,0.268
13,ATCTTGCG,0.0481
14,ATGCTCAA,-0.0746
15,CACGTTTC,-0.0686
16,ATCACTGG,0.137
17,GGATGTCA,0.233
18,CTCTGCTA,-0.0408
19,CCGTGAGA,-0.184
20,ACGCAGTA,-0.138
21,CCTACCAC,-0.0755
22,ATAGCGGG,0.156
23,CATCATAG,0.00201
24,CAGTCGCG,-0.104
25,GGACACAA,-0.042

row,Sequence,PBM E-score
1,CACGGAAC,0.0756
2,AGAAAGGC,0.0556
3,CGTATAGA,0.0615
4,TCTAGCAA,-0.0854
5,CGTCCTTC,-0.0255
6,GCATCTAA,0.303
7,ACTTAGTC,-0.278
8,ATGGGAAC,0.0822
9,ATTCCGAA,0.147
10,CCCTATCG,-0.00206
11,ATAAAGAT,0.135
12,ACTTAGAC,0.00479
13,GCCCTACA,-0.119
14,AGCTTGTA,0.12
15,GGAGAGAC,-0.0279
16,TCGTAGCA,-0.018
17,GTGTTAAC,0.0195
18,CGCCCACC,0.00485
19,TATAGTGA,-0.263
20,ACTTAAAT,0.129
21,ACTGTAAG,0.0493
22,TAGTCCCA,-0.269
23,ACTAGAAA,0.0694
24,AACCCAAC,0.116
25,GATTCCTA,0.439

row,Sequence,PBM E-score
1,ATGAAGCA,-0.19
2,ACTTTGAC,0.0912
3,GTTCATGA,-0.0786
4,CTCAATAC,-0.00463
5,AGAGATGA,-0.0147
6,AGCAGAAA,0.0713
7,ATGCTCAG,0.16
8,CATTAGCG,0.0994
9,AGCGCATG,-0.0716
10,ACAAACAC,0.135
11,GTTGCTGA,0.0955
12,CCTTTTCC,-0.103
13,AGGGATAC,0.0126
14,AACCAGCG,0.00077
15,CATCAACC,-0.0283
16,CATTTTGC,-0.188
17,GGTCAACA,-0.205
18,GGTGATGA,0.0597
19,CAACACCA,-0.00356
20,TACGAGCA,-0.084
21,AAACGAAC,-0.0756
22,CGCTACCA,0.182
23,GGAGATGA,-0.243
24,ATATTCTA,0.0278
25,TAGTGATA,0.0388

row,Sequence,PBM E-score
1,CTACTTCC,0.0906
2,AAATGGGC,0.0949
3,CGAGGTAC,-0.00307
4,GGACCAAC,-0.16
5,TAGCTTCA,0.0672
6,CGACATGA,0.119
7,AGCTGACG,-0.103
8,CTTCATTA,-0.0603
9,GTCAGGTA,0.091
10,ATAGAGCA,-0.0362
11,CGTAAACA,-0.0146
12,GTATGTGA,0.0541
13,CTGTCCTC,-0.108
14,GACGTAGC,0.0787
15,ACGCTACG,-0.0913
16,CATATGTA,0.0562
17,AAACATTG,0.102
18,AGTCGAGC,-0.0406
19,AGTAATTC,0.176
20,AGAGAATA,-0.127
21,GGCACCTA,0.281
22,AGCATCTA,0.319
23,CACATCGG,-0.0866
24,AACATCGG,-0.136
25,AATAAGGG,-0.0652

row,Sequence,PBM E-score
1,CTATCCAA,-0.0753
2,ACACCCAG,-0.139
3,TCCCTTCA,-0.0396
4,CGAATCCA,0.215
5,ATTTAAGC,0.223
6,GTGCATTA,-0.0893
7,GCAGCCTA,0.21
8,TGTATACA,-0.27
9,CCGACCGC,-0.278
10,TAGGACGA,-0.219
11,GAATCCGC,0.235
12,TAACATCA,0.0816
13,ACCCAGGG,-0.0729
14,ACGCGTCA,-0.171
15,GTCTGACA,-0.00585
16,GCCTACAC,-0.0148
17,ATTCGTGG,0.0839
18,CTGCGGGA,0.162
19,AATCTACT,0.0661
20,GCATCGAA,0.0289
21,AGCTCGCC,-0.253
22,GCATCACA,0.0953
23,GTCTTGCA,-6e-05
24,ACGTGAGC,0.00326
25,AGACCGTG,-0.333

row,Sequence,PBM E-score
1,AACTCTCC,-0.145
2,AGACATGC,-0.0808
3,AAGGGGTA,-0.056
4,AACACCGA,-0.0565
5,AGGTGCAT,0.0543
6,CAGCTGTC,-0.0336
7,GCTACCAC,0.323
8,TGCGTGAA,0.0341
9,CGAAACAG,0.0228
10,AAGTCTCC,-0.0643
11,CATGAGCA,-0.144
12,CAATTGTG,0.0106
13,ATACCGTC,0.00724
14,AAGCCTAA,-0.119
15,ATGCATGA,-0.00529
16,CTAGACTC,0.0719
17,CGAGTCAA,-0.223
18,CGGCGCCG,0.113
19,TAAACTCA,-0.108
20,AGCCACAC,0.235
21,AAACTCAT,0.0159
22,CGCAGATC,-0.0553
23,CTGATACA,-0.124
24,CGACTACG,-0.151
25,CGAGCCCA,-0.119

row,Sequence,PBM E-score
1,ACCGCTAC,-0.0203
2,AGTCGCCC,0.23
3,CGGCGTCC,0.412
4,AGAGGTAG,0.0431
5,TATAAAAA,0.193
6,CAATGAGC,0.0207
7,AAGTCATT,0.0655
8,CGGCATCA,0.223
9,GCTGGTAA,0.122
10,ATGCTAGG,-0.0494
11,CGCTATGA,-0.0306
12,AGTCGGAT,0.0121
13,GTAAAACA,0.0102
14,AGTAGTTA,0.0792
15,CTCGAGAA,-0.0292
16,TAATATGA,0.187
17,CGAGGGTA,-0.198
18,ACTATACA,-0.0944
19,CTTGAAGA,0.0304
20,ACAGCTTA,-0.0153
21,ATAAGGAT,0.128
22,CGTAATGA,-0.0599
23,ATAGCTAT,0.073
24,CATCCGCG,0.00816
25,AATGACGT,-0.0848

row,Sequence,PBM E-score
1,AAGTACTA,-0.0751
2,AAGTGGCC,0.085
3,ATTGCGTA,-0.0537
4,TGATCCAA,-0.00056
5,ACGATTAT,0.0139
6,AGCAGGTG,-0.00993
7,AACCGCCT,0.00084
8,AACAGCTC,-0.169
9,GCGCCCCA,0.239
10,AGGAAATG,-0.145
11,TAAGTAAA,-0.00128
12,GCTGGTTA,0.0507
13,CATACCAG,0.0992
14,AAAGTTAG,-0.0674
15,ATGTCGCC,0.129
16,CACAAAAA,0.245
17,CACTAGCC,-0.188
18,ATGTGCAA,0.12
19,ATATGAAG,-0.0858
20,ACACTGGT,0.035
21,ATAACGTG,-0.138
22,AATCCACC,-0.168
23,CCGTACAA,-0.0933
24,CGAGCCAG,-0.214
25,CAAATGGA,-0.0274

row,Sequence,PBM E-score
1,CAAGCCAG,-0.272
2,AGCCTATC,0.0792
3,ACTGTACG,-0.14
4,CGGTCACC,0.00872
5,ATTTTGAG,0.162
6,AGCGGGCA,-0.156
7,AAGCTAAA,-0.0804
8,CAGTTGCG,0.0778
9,ACAGTTTG,-0.116
10,ACCCCATG,0.0445
11,CTGCAAGA,0.118
12,ATAACCAT,-0.0881
13,GACAGAAC,-0.0251
14,ACCCCGGG,-0.106
15,ATTATCGG,-0.0927
16,GGGAGTCA,0.0276
17,GCTCCATA,0.143
18,CGTGCTCC,0.0296
19,ACCTTGCG,-0.0748
